Source: the supplement of paper PMC6206098
± gives the uncertainty stated by the source. Shown are siRNA guide strands that differ only in the seed, positions 2 to 7.

Key:
3LL = experiment: cell viability relative to siNT1 control; higher = less toxic; conditions: concentration: 10 nM; 96 h; Mus musculus;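 also: Luminescence-based viability of cells reverse transfected in 384-well plates with lipid-complexed siRNAs built on a non-toxic 19mer backbone whose passenger strand carries 2′-O-methyl groups at positions 1 and 2, triplicates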
Description: (§1)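 Arrayed screen of 4096 siRNA duplexes, each carrying one of all possible 6mer seeds at guide-strand positions 2-7 in a fixed neutral 19mer scaffold (constant flanks: U at position 1, then ACAUGUAAACCA, plus a 3' AA overhang). The passenger strand is 2'-O-methylated at positions 1-2 so only the guide strand loads into RISC. Duplexes were reverse-transfected at 10 nM with RNAiMAX in triplicate in 384-well plates; viability was read by CellTiter-Glo ATP content 96 h after transfection. Values are % viability normalised to lipid-only wells (HeyA8, H460, M565) or to siNT1 (3LL).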

H460 = experiment: cell viability relative to lipid-only control; HeyA8 human ovarian and H460 human lung cancer; M565 mouse liver and 3LL mouse lung cancer; siNT1 is a non-toxic control siRNA; higher = less toxic; conditions: concentration: 10 nM; 96 h; Homo sapiens
Description: as §1

HeyA8 = experiment: as above; conditions: concentration: 10 nM; 96 h; Homo sapiens
Description: as §1

M565 = experiment: as above; conditions: concentration: 10 nM; 96 h; Mus musculus
Description: as §1
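For cell viability relative to lipid-only control in this document: reverse lipid transfection in 384-well plates, in triplicate, of duplexes on a non-toxic 19mer backbone with passenger strand 2′-O-methylated at positions 1 and 2, luminescence viability read-out.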

| Sequence | cell viability (3LL) [%] | cell viability (H460) [%] | cell viability (HeyA8) [%] | cell viability (M565) [%] |
| --- | --- | --- | --- | --- |
| UGUCUUCACAUGUAAACCAAA | 35.3 ± 1.7 | 46.3 ± 4 | 2.22 ± 0.17 | 40 ± 8.6 |
| UUGAGUUACAUGUAAACCAAA | 95.7 ± 12 | 82.6 ± 16 | 86 ± 11 | 98.9 ± 12 |
| UUAGCAAACAUGUAAACCAAA | 88.2 ± 16 | 80.6 ± 11 | 87 ± 4.9 | 71.1 ± 16 |
| UACCUUAACAUGUAAACCAAA | 92.5 ± 4.5 | 60.8 ± 8.7 | 86.4 ± 3.6 | 77.9 ± 9.8 |
| UCCCAGUACAUGUAAACCAAA | 78 ± 18 | 65.5 ± 0.81 | 65.1 ± 6 | 25 ± 9.5 |
| UCUACACACAUGUAAACCAAA | 97.7 ± 15 | 62.3 ± 1.8 | 93.2 ± 11 | 74 ± 21 |
| UUACGGCACAUGUAAACCAAA | 10.7 ± 2.6 | 40.8 ± 3.6 | 33.9 ± 5 | 42 ± 6.7 |
| UUGGGUGACAUGUAAACCAAA | 14.6 ± 4.3 | 23.3 ± 0.73 | 22.7 ± 2.6 | 26.3 ± 1.3 |
| UAAAAAUACAUGUAAACCAAA | 116 ± 18 | – | – | – |
| UGCGCUAACAUGUAAACCAAA | 96 ± 15 | 97.5 ± 12 | 87.2 ± 5.2 | 72.3 ± 4 |
| UUACAACACAUGUAAACCAAA | 96.4 ± 18 | 68.8 ± 4.7 | 89.8 ± 1.6 | 105 ± 32 |
| UCAGUUGACAUGUAAACCAAA | 93.6 ± 11 | 52.8 ± 6.8 | 84.5 ± 12 | 48 ± 4.3 |
| UAAGAGUACAUGUAAACCAAA | 70.3 ± 1.1 | 68.7 ± 2.9 | 67.3 ± 9.4 | 61 ± 2.7 |
| UCGCUACACAUGUAAACCAAA | 85 ± 20 | 64.4 ± 7.6 | 64.1 ± 2.7 | 59.3 ± 3.8 |
| UCAUAGGACAUGUAAACCAAA | 47.4 ± 10 | 22.4 ± 1 | 46.2 ± 5.6 | 11.9 ± 3.7 |
| UAAUCACACAUGUAAACCAAA | 98.4 ± 10 | 63.4 ± 6.4 | 73.4 ± 10 | 73.4 ± 11 |
| UGGCGUGACAUGUAAACCAAA | 59.6 ± 5.9 | 46.6 ± 9.1 | 17.6 ± 1.9 | 31.7 ± 7.8 |
| UUGGGGGACAUGUAAACCAAA | 12.9 ± 4.6 | 19 ± 1.7 | 4.28 ± 0.67 | 8.81 ± 1.8 |
| UCUUUUCACAUGUAAACCAAA | 83.4 ± 15 | 67.5 ± 10 | 28.7 ± 3.6 | 87.7 ± 13 |

| Sequence | cell viability (3LL) [%] | cell viability (H460) [%] | cell viability (HeyA8) [%] | cell viability (M565) [%] |
| --- | --- | --- | --- | --- |
| UCUGCGAACAUGUAAACCAAA | 100 ± 12 | 64.7 ± 2 | 92.7 ± 4.9 | 85.4 ± 18 |
| UCACAAGACAUGUAAACCAAA | 98.3 ± 14 | 35.8 ± 5.3 | 86.3 ± 11 | 60.9 ± 8.2 |
| UUUCGCUACAUGUAAACCAAA | 93.9 ± 10 | 80.5 ± 16 | 95.3 ± 1.5 | 72.5 ± 8.6 |
| UCAUGCAACAUGUAAACCAAA | 80.3 ± 21 | 52 ± 6.5 | 60.8 ± 5 | 50.4 ± 7.4 |
| UUUUAAGACAUGUAAACCAAA | 99.7 ± 6 | 66.7 ± 7.7 | 96.9 ± 6.4 | 89 ± 5 |
| UCGUGUCACAUGUAAACCAAA | 73.2 ± 10 | 68.7 ± 15 | 65.8 ± 3.1 | 43.8 ± 9 |
| UGUACUAACAUGUAAACCAAA | 92.2 ± 5.4 | 93.5 ± 5 | 85.1 ± 5.3 | 71.7 ± 6.2 |
| UUCAGGGACAUGUAAACCAAA | 41.3 ± 7.6 | 68.3 ± 4 | 75.7 ± 15 | 51.7 ± 9.8 |
| UUUCGUAACAUGUAAACCAAA | 102 ± 7.1 | 68.2 ± 11 | 99.1 ± 4 | 94 ± 5.5 |
| UCGCCGAACAUGUAAACCAAA | 95.4 ± 17 | 90.2 ± 7 | 89.8 ± 3.9 | 71.9 ± 3.5 |
| UUUGAUAACAUGUAAACCAAA | 103 ± 6.8 | 65.9 ± 7.8 | 104 ± 6.1 | 90.6 ± 6.6 |
| UCCACAUACAUGUAAACCAAA | 105 ± 17 | 65.5 ± 6 | 80.2 ± 9.3 | 80 ± 28 |
| UAGUAAUACAUGUAAACCAAA | 55.1 ± 6.4 | 45.7 ± 4.6 | 29.7 ± 2.1 | 52.7 ± 0.99 |
| UGGAAUGACAUGUAAACCAAA | 97.9 ± 7.1 | 55.1 ± 1.8 | 45.5 ± 4.1 | 15.8 ± 2.9 |
| UGGUAAAACAUGUAAACCAAA | 90.8 ± 10 | 67 ± 11 | 89.3 ± 3.5 | 74.6 ± 22 |
| UAGUACAACAUGUAAACCAAA | 53.1 ± 7.1 | 45.3 ± 7.5 | 54.6 ± 1 | 107 ± 4.1 |
| UCAUCCUACAUGUAAACCAAA | 64.9 ± 7.5 | 36.5 ± 2.5 | 53.5 ± 6.4 | 42.8 ± 4.8 |
| UAAUGGGACAUGUAAACCAAA | 39.4 ± 4.7 | 80.3 ± 7.9 | 48.5 ± 3.8 | 39 ± 11 |
| UACAAUAACAUGUAAACCAAA | 97.1 ± 12 | 90.7 ± 7.6 | 89.6 ± 6.4 | 65.8 ± 4.5 |

| Sequence | cell viability (3LL) [%] | cell viability (H460) [%] | cell viability (HeyA8) [%] | cell viability (M565) [%] |
| --- | --- | --- | --- | --- |
| UUAGUGGACAUGUAAACCAAA | 31.8 ± 8 | 63.4 ± 6.7 | 64.1 ± 3.4 | 56.1 ± 3.7 |
| UCCAACCACAUGUAAACCAAA | 33.4 ± 7.3 | 34.1 ± 1.6 | 31.7 ± 3.7 | 4.77 ± 0.94 |
| UUGAUAUACAUGUAAACCAAA | 84.2 ± 13 | 77.9 ± 8.2 | 74.8 ± 2.5 | 109 ± 33 |
| UGCUCCCACAUGUAAACCAAA | 7.69 ± 0.87 | 22.9 ± 2.2 | 21.2 ± 1.7 | 28.3 ± 8.4 |
| UUGAGCAACAUGUAAACCAAA | 76.4 ± 1.5 | 67 ± 3.4 | 92.6 ± 10 | 44.5 ± 6.7 |
| UGAAACGACAUGUAAACCAAA | 96.7 ± 14 | 82.1 ± 15 | 87.4 ± 2.1 | 75.3 ± 8.4 |
| UCAACAAACAUGUAAACCAAA | 90.6 ± 18 | 79.6 ± 8.2 | 81.5 ± 8.6 | 71.5 ± 5.1 |
| UUUAGACACAUGUAAACCAAA | 81.1 ± 6.6 | 82 ± 7.4 | 95.7 ± 4.5 | 68.6 ± 5.6 |
| UAUUUUCACAUGUAAACCAAA | 32.2 ± 15 | 47.9 ± 2.3 | 41.5 ± 2.7 | 65.3 ± 7.7 |
| UAGUGCAACAUGUAAACCAAA | 87.8 ± 2.3 | 91.3 ± 19 | 81.6 ± 8 | 117 ± 18 |
| UUGCGGCACAUGUAAACCAAA | 43.9 ± 1.8 | 35.4 ± 0.91 | 35.7 ± 4.9 | 20.5 ± 2.8 |
| UAAGGCAACAUGUAAACCAAA | 71.4 ± 4.6 | 60 ± 5.3 | 71.1 ± 7.9 | 26.2 ± 6.3 |
| UGGCGCUACAUGUAAACCAAA | 29 ± 7.2 | 46.4 ± 3.8 | 36.6 ± 3.3 | 26.9 ± 6.2 |
| UGGGUGGACAUGUAAACCAAA | 13.9 ± 3.8 | 3.81 ± 0.34 | 1.65 ± 0.11 | 9.23 ± 2.1 |
| UUCGCUCACAUGUAAACCAAA | 62.2 ± 17 | 66 ± 4 | 61.6 ± 10 | 77.6 ± 17 |
| UUCGUAGACAUGUAAACCAAA | 104 ± 13 | 90.7 ± 5.2 | 98.6 ± 15 | 80.3 ± 8.9 |
| UGCACCGACAUGUAAACCAAA | 71.5 ± 9.1 | 69.5 ± 12 | 62.1 ± 5.4 | 54.6 ± 5.2 |
| UGCAGUCACAUGUAAACCAAA | 4.85 ± 1.2 | 38.5 ± 2.5 | 29.7 ± 3 | 8.13 ± 1.1 |
